# Reference: PubChem BioAssay AID485344 (National Center for Advancing Translational Sciences (NCATS), 2010)
# “And” between values parts separate entries of the source, which are not always exact repeats. Equal values may be shown once. Screen size: about 340,000 compounds; about 6,900 (2%) were called active. Rule as the data show it: active = inhibition above about 30%; inactive = below that, where a call was filed. This is a selection; strong and weak results do not stand in their true shares. Where no call is shown, the source filed none.
# Target: D(2) dopamine receptor (Homo sapiens) (UniProt P14416)
# Assay: HTS Assay for Allosteric Antagonists of the Human D2 Dopamine Receptor: Primary Screen for Antagonists; also: 0% is about no effect
# Conditions: HEK293 TREx D2 cells, calcium flux, dopamine EC80; at 10 µM; stronger effect = higher value
# Outline: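 Measurement of antagonist activity uses fluorescent calcium dye in inducible HEK293 T-REx D2 cells: 10 s baseline, compound addition with 180 s read, EC80 dopamine addition with a further 180 s read.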
# Chain of UniProt P14416 (P14416 whole entry, looked up): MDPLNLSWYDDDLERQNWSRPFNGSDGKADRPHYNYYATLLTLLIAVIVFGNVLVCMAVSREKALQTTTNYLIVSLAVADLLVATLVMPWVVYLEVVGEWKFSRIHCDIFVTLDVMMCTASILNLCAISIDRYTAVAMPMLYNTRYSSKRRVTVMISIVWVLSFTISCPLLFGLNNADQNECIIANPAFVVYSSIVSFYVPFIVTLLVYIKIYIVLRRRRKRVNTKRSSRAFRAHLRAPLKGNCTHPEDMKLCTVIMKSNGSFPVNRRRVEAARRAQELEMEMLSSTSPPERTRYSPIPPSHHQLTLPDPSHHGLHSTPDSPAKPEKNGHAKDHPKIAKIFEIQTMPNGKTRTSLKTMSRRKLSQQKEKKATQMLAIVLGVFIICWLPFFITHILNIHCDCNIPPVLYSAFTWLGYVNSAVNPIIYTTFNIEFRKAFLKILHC
row,Structure (SMILES),inhibition
1,CCc1ccccc1Nc1sc(C(=O)c2ccccc2)c(N)c1S(=O)(=O)c1ccccc1,9.55%
2,CCCCN(CC)C(=O)CSc1nc2c(sc3ccccc32)c(=O)n1CCc1ccccc1,-0.954%
3,CN(C)C(=O)c1ccc(S(=O)(=O)NCc2ccc(Cl)cc2)s1,-0.561%
4,CCc1ccccc1NC(=O)Cn1c(=O)n(-c2ccc(C)cc2)c(=O)c2cc(OC)c(OC)cc21,5.18%
5,CCN(CCCNC(=O)Cn1ncc2c([nH]c3ccccc32)c1=O)c1cccc(C)c1,3.24%
6,COC(=O)c1scc(-c2ccc(C)cc2)c1S(=O)(=O)N1CCN(c2cccc(Cl)c2)CC1,-1.9%
7,CCCSC1=NC2(CCN(C(=O)NC3CCCCC3)CC2)N=C1c1ccc(C)cc1,-2.34%
8,Cc1ccc(C)c(OCc2nc3ccccc3n2C)c1,0.0064%
9,Cc1ccccc1NC(=O)CSc1nc2c(oc3ccccc32)c(=O)n1Cc1ccco1,13.5%
10,Cc1nc2nc(NCc3ccccc3Cl)[nH]n2c(=O)c1Cc1ccccc1,1.95%
11,COc1ccc([N+](=O)[O-])cc1NC(=O)C(C)OC(=O)CSC(C)C(=O)Nc1cc(C)on1 (stereo not given),active: 35.9%
12,O=C(NCc1ccccc1)C1CCN(c2ncnc3c2nc2n3CCCCC2)CC1,-10%
13,Cc1ccc(CCNC(=O)C2CC(=O)N(CCc3ccc(C)cc3)C2)cc1 (stereo not given),-12.4%
14,CCOC(=O)c1cccc(NC(=O)C2COc3ccc(OC)cc3C2)c1 (stereo not given),5.89%
15,O=C(c1ccco1)N1CCN(CCOc2ccccc2)CC1,active: 61.7%
16,O=C(NCc1ccc(Cl)cc1)c1ccc2c(c1)nnn2C1CCCC1,-7.39%
17,COc1ccc(C)cc1NC(=O)CSc1nc(=O)n(Cc2ccco2)c2c1CCC2,6.59%
18,Cc1ccc(-n2cc(-c3ccccc3)c3c(N4CCC(C)CC4)ncnc32)cc1Cl,2.05%
19,Cc1cccc(N(C)S(=O)(=O)c2nnc(NC(=O)C(C)Oc3ccccc3)s2)c1 (stereo not given),-15.5%
20,CN1C(=O)c2ccccc2Sc2ccc(NC(=O)Cc3ccc(Cl)cc3)cc21,1.53%
21,COc1ccc(OC)c(CCNC(=O)c2ccc3c(c2)N(Cc2ccccc2)CCS3)c1,3.17%
22,CCOC(=O)c1c(NC(=O)Cn2c(=O)oc3ccccc32)oc(C)c1C(C)=O,active: 30.5%
23,COC(=O)c1sccc1S(=O)(=O)N1CCN(c2cccc(C)c2)C(C)C1 (stereo not given),2.77%
24,COc1cccc(-c2cc3c(-n4cccc4)ncnc3o2)c1,active: 37.4%

row,Structure (SMILES),inhibition
1,CN1CCN(C2=CC3=CC(=C(C#N)C#N)CCC3CC2)CC1 (stereo not given),active: 48.7%
2,CCc1ccc(NC(=O)C2CCCN(S(=O)(=O)c3ccc4[nH]c(=O)ccc4c3)C2)cc1 (stereo not given),-6.97%
3,CCOC(=O)C1CCN(C(=O)Cn2nc(C)n3c(cc4c(OC)cccc43)c2=O)CC1,10.4%
4,CCC1CN(C(=O)NCc2ccc(F)cc2)c2cc(C)ccc2O1 (stereo not given),-14.1%
5,O=C(CSc1ccnc(=O)[nH]1)NCc1ccc(F)cc1,16%
6,COc1cccc(C(c2sc3nc(-c4ccco4)nn3c2O)N2CCC(C)CC2)c1 (stereo not given),-28.4%
7,CC(=O)Nc1ccc(S(=O)(=O)NCCc2csc3nc(-c4ccc(Cl)cc4)nn23)cc1,-7.79%
8,CCCN(Cc1nnc(-c2cccs2)o1)C(=O)CN1C(=O)NC2(CCCCC2)C1=O,active: 31.4%
9,CC(C)(C)OC(=O)N1CCC(c2c(C(=O)N3CCN(c4cccc(Cl)c4)CC3)cnn2-c2cccc(Cl)c2)CC1,4.38%
10,COc1ccc(S(=O)(=O)Nc2cccc(-c3ccc(N4CCCCCC4)nn3)c2)cc1OC,-6.5%
11,Cc1cccc(OCC(=O)Nc2c(C(=O)Nc3ccc(F)cc3)oc3ccccc23)c1,-7.82%
12,Cc1cccc(C(=O)NCCc2nc3ccccc3n2CCC(C)C)c1,2.48%
13,COc1ccc(NCc2cc3ccc(OC)cc3n(CC(=O)Nc3ccc(C)c(C)c3)c2=O)cc1,-3.69%
14,O=c1c2sc3ccccc3c2n(Cc2cccc(Cl)c2)c(=O)n1Cc1ccccc1,-9.77%
15,CCOc1ccc(OCC)c(NC(=O)c2cnn(-c3ccc(F)cc3)c2-n2cccc2)c1,9.24%
16,CCc1ccc(-n2nc(C)c3c(C)cc(=O)n(CC(=O)Nc4cc(Cl)ccc4OC)c32)cc1,-4.24%
17,CCCN1CCN(c2nnc(-n3cccc3C(=O)Nc3ccccc3C(F)(F)F)s2)CC1,1.81%
18,COc1cc(NC(=O)NCCc2c(C)nn(C)c2C)cc(OC)c1OC,-7.78%
19,Cc1cccc2c(=O)cc(CSc3ccccc3NC(=O)c3cccc(Cl)c3)[nH]c12,8.12%
20,Cc1ccc2nc(CSc3nnc(NC(=O)C(C)C)s3)cc(=O)n2c1,19.7%
21,CCCCn1cc2c(c1-c1ccc(Br)cc1)c(=O)n(C)c(=O)n2C,-5.99%
22,CCOc1ccc(-c2cc3c(=O)n(Cc4nc(-c5ccc(OCC)c(OC)c5)oc4C)ccn3n2)cc1Cl,-12.8%
23,CSc1ccc(C2c3c(-c4ccccc4O)n[nH]c3C(=O)N2Cc2ccncc2)cc1 (stereo not given),4.61%
24,COc1ccccc1NC(=O)c1ncn(-c2ccccc2)n1,15.7%

row,Structure (SMILES),inhibition
1,CCCCN1C(=O)c2[nH]nc(-c3ccccc3O)c2C1c1ccc(OCc2ccccc2)c(OC)c1 (stereo not given),5.62%
2,Cc1ccccc1NC(=O)c1c(NC(=O)c2ccccc2F)sc2c1CCC(C)C2 (stereo not given),11.1%
3,COc1ccc(Cn2ccc3nc(C)c(C(=O)N4CCN(c5ccc(F)cc5)CC4)cc3c2=O)cc1,6.68%
4,O=C(O)c1ccnc(Cl)c1,active: 31.5%
5,Cc1c(C(=O)OC2CCC(C)CC2)[nH]c2c1C(=O)CC(c1ccc(F)cc1)C2 (stereo not given),5.09%
6,Cc1ccc(Sc2c(C)nn(C(C)(C)C)c2OC(=O)CC(C)C)cc1,2.73%
7,CCOC(=O)c1cccc(NC(=O)CCc2c(C)nn(-c3ccc(N4CCCCC4)nn3)c2C)c1,-22.2%
8,C=CCNCCOc1ccc(C)cc1[N+](=O)[O-],active: 45.8%
9,CCCCN(CCCC)CCCNC(=O)c1ccc2nc(N3CCCCC3)sc2c1,-2.29%
10,Cc1ccc(CNC(=O)CCNS(=O)(=O)c2ccc3c(c2)CCCC(=O)N3)cc1,8.26%
11,Cc1nn2c(=O)cc(COc3ccc(/C=C(\C#N)C(=O)Nc4ccccc4C)cc3)nc2s1,-11.7%
12,COc1ccc(-c2nnn3c2nc(NCCc2ccc(OC)c(OC)c2)c2ccccc23)cc1,24.9%
13,COc1ccc(OC)c(Nc2nc3ccccc3nc2-n2nc(C)cc2C)c1,11.7%
14,CCOc1ccc(CNC(=O)c2ccc(CSc3nc4ccncc4n3Cc3ccc(F)cc3)cc2)cc1,1.63%
15,COc1cccc(-c2cc(C(=O)Nc3cnn(Cc4ccc(Cl)cc4Cl)c3)no2)c1,1.99%
16,O=C(CC1N=C2c3ccccc3N=C(SCc3cccc(F)c3)N2C1=O)NCc1cccs1 (stereo not given),5.71%
17,COc1cccc(NC(=O)c2oc3ccccc3c2NC(=O)c2ccccc2C)c1,-21.1%
18,COC(=O)c1ccccc1NC(=O)CSc1n[nH]c(CC(C)C)n1,3.82%
19,Cc1nn(-c2ccccc2)c2nc(C3CC3)cc(C(=O)Nc3cccc(F)c3)c12,-4.5%
20,CC(C)CCNc1nc2c(-c3ccccc3)nnn2c2ccccc12,-16%
21,c1ccc(CSc2ncn[nH]2)nc1,active: 42.1%
22,CCC(=O)Nc1cccc(NC(=O)CSc2nnc(C3CC3)n2C)c1,active: 30.9%
23,Cc1ccc(C(=O)CSc2nc3cc(C(=O)NC4CCCC4)ccc3c(=O)n2CC2CCCO2)c(C)c1 (stereo not given),5.91%
24,Cc1ccc(S(=O)(=O)N(CC(=O)Nc2cccnc2)c2cc(Cl)ccc2C)cc1,7.87%

row,Structure (SMILES),inhibition
1,CCOC(=O)CN1C(=O)N(c2ccc(C)c(C)c2)S(=O)(=O)c2ccccc21,-11.8%
2,Cc1ccc(CN2CCC(CNC(=O)c3cnn(-c4ccc(C)cc4)c3C3CCN(C(=O)OC(C)(C)C)CC3)CC2)cc1,7.51%
3,Cc1cc(=O)n(CC(=O)Nc2ccc(Cl)c(Cl)c2)c(-n2nc(C)cc2C)n1,-6.21%
4,Cc1cccc(NC(=O)CCCn2nc(C)c3c(C)n(-c4ccccc4)nc3c2=O)c1C,3.76%
5,COc1ccc(NC(=O)CC2C(=O)N(c3ccccc3)C(=O)N2CCc2sccc2C)cc1 (stereo not given),6.56%
6,CCOc1ccc(CNC(=O)C2CCCN(c3nn4cc(-c5ccc(OC)cc5)nc4s3)C2)cc1 (stereo not given),-10.9%
7,O=C(Cn1ncc2c3ccccc3n(Cc3ccccc3)c2c1=O)NCc1ccccn1,9.91%
8,Cc1ccc(-n2ncc3c(NCCCN(C)C)ncnc32)cc1Cl,13.2%
9,COc1ccc2c(CNCCc3ccco3)c(C(=O)O)n(Cc3ccc(C)cc3)c2c1,-7.73%
10,COc1ccc(Nc2ncc3c(n2)CCN(Cc2sccc2C)C3)c(OC)c1,14.5%
11,COc1ccc(OC)c(-c2cc(C(=O)Nc3c(C)nn(Cc4ccc(C)cc4)c3C)no2)c1,-0.153%
12,COc1ccc(C(CNC(=O)c2oc3cc(Br)ccc3c2C)N2CCCCC2)cc1 (stereo not given),-17.8% and active: 61.5%
13,O=[N+]([O-])c1ccc(S(=O)(=O)N2CCn3cccc3C2c2ccc(Br)cc2)cc1 (stereo not given),10.8%
14,Cc1ccccc1CNC(=O)C1CCCCN1S(=O)(=O)c1ccc(F)cc1 (stereo not given),-7.54%
15,Cc1ccc(-n2nc(C(=O)N(C)c3ccc(C)c(C)c3)c3c4ccccc4n(C)c3c2=O)cc1,-0.365%
16,Cc1ccc(NC(=O)c2c(C)oc3ccc(O)c(CN4CCN(Cc5ccccc5)CC4)c23)cc1,-6.6%
17,COc1ccc(CNC(=O)CCCn2ccc3cc(S(=O)(=O)N4CCCC4)ccc32)cc1,-1.94%
18,CCOc1cc(-c2nnc(SCC(=O)NC3CCCCC3)nc2-c2ccc(OC)c(OCC)c2)ccc1OC,5.72%
19,CC(C)NC(=O)C1CCCN(c2ncnc3onc(-c4ccc(F)cc4)c23)C1 (stereo not given),-1.38%
20,CCOc1ccccc1NC(=O)CCS(=O)(=O)c1ccc2c(c1)oc(=O)n2C,10.4%
21,COc1cc(C2c3c(-c4c(C)cc(C)cc4O)n[nH]c3C(=O)N2Cc2ccco2)cc(OC)c1OC (stereo not given),2.98%
22,CCOC(=O)C(C)Sc1nnc2cc(C)c3ccccc3n12 (stereo not given),-3%
23,COc1ccc2oc(-c3cccc(NC(=O)c4cc([N+](=O)[O-])ccc4N4CCOCC4)c3)nc2c1,-4.97%
